Results from the supplement of paper PMC7826260.
Some of the results follow. One pool of 16,384 single-stranded DNAs met each Rep nickase domain in vitro at 3 µM enzyme and 37 °C for 1 h; the strands have 90 letters, of which the middle is given. A value is the log2 ratio of uncut reads to the pool without enzyme; strong cutting gives strongly negative numbers. There is no active / inactive call. Shares of all reads are compared; values above 0 arise when much of the pool is cut.

What was measured:
Experiment in all cases: uncleaved DNA left, log2 of reads against the no-enzyme library (log2 ratio); higher = less cleavage (more negative = more Rep cleavage of the k-mer); sequences stand for … in CTCGTCCG…ACCGGAGA
[1] = test system: T1, Rep nickase domain of Muscovy duck circovirus
T1 sequence (residues 1-111 of Rep, tag left off): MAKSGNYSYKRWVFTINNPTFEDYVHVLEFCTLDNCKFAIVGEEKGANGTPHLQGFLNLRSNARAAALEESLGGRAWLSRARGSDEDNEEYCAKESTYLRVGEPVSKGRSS
Procedure: (§1)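 A pool of 90-nt single-stranded DNAs with seven random bases just before the constant AC of the nick site (name = the seven bases) was cut by 3 µM recombinant His6-SUMO-tagged Rep nickase domain (300 nM DNA, 50 mM HEPES pH 8.0, 50 mM NaCl, 1 mM MnCl2, 1 h, 37 °C, three replicates). Uncut DNA was amplified and sequenced.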

[2] = test system: T2, Rep nickase domain of banana bunchy top virus
T2 sequence (residues 1-94 of Rep, tag left off): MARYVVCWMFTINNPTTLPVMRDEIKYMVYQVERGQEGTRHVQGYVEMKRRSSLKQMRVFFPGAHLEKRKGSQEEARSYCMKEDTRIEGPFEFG
Procedure: as §1

[3] = test system: T3, Rep nickase domain of cabbage leaf curl virus
T3 sequence (residues 1-116 of Rep, tag left off): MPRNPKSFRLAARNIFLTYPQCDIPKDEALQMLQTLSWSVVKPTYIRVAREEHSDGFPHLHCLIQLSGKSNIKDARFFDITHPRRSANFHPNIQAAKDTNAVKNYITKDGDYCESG
Procedure: as §1

[4] = test system: T4, Rep nickase domain of chickpea chlorotic dwarf virus
T4 sequence (residues 1-124 of Rep, tag left off): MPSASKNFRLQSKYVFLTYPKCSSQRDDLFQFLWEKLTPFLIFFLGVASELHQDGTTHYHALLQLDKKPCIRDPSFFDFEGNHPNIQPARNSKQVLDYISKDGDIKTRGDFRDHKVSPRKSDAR
Procedure: as §1

[5] = test system: T5, Rep nickase domain of faba bean necrotic yellows virus
T5 sequence (residues 1-98 of Rep, tag left off): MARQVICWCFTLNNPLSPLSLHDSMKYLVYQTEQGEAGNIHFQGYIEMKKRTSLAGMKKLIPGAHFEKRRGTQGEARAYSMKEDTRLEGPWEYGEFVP
Procedure: as §1

[6] = test system: T6, Rep nickase domain of maize striate mosaic virus
T6 sequence (residues 1-117 of Rep, tag left off): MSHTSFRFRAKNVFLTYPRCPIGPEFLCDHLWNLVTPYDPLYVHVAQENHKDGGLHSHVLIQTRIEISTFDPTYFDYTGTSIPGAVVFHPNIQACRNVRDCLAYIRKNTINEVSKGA
Procedure: as §1

[7] = test system: T7, Rep nickase domain of porcine circovirus 2
T7 sequence (residues 2-116 of Rep, tag left off): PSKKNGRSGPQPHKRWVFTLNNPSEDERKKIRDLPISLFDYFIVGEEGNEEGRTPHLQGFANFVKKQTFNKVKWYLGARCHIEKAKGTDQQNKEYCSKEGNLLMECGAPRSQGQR
Procedure: as §1

[8] = test system: T8, Rep nickase domain of tomato golden mosaic virus
T8 sequence (residues 1-124 of Rep, tag left off): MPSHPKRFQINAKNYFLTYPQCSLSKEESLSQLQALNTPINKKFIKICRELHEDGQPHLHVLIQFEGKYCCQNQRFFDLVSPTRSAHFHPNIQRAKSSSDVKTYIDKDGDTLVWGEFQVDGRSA
Procedure: as §1

[9] = test system: T9, Rep nickase domain of tomato yellow leaf curl virus
T9 sequence (residues 1-136 of Rep, tag left off): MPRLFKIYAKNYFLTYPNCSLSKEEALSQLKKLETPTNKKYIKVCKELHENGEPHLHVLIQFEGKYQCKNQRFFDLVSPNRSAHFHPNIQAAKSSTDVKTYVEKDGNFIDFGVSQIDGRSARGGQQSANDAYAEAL
Procedure: as §1

[10] = test system: T10, Rep nickase domain of wheat dwarf virus
T10 sequence (residues 1-137 of Rep, tag left off): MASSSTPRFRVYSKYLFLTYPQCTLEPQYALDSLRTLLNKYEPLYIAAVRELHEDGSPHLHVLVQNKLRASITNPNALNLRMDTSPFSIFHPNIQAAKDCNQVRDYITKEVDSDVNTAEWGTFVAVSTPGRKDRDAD
Procedure: as §1

Sequence | uncleaved DNA left (log2) [1] | uncleaved DNA left (log2) [2] | uncleaved DNA left (log2) [3] | uncleaved DNA left (log2) [4] | uncleaved DNA left (log2) [5] | uncleaved DNA left (log2) [6] | uncleaved DNA left (log2) [7] | uncleaved DNA left (log2) [8] | uncleaved DNA left (log2) [9] | uncleaved DNA left (log2) [10]
TGACGGC | -0.0633 | 0.0472 | 0.0592 | 0.161 | -0.0948 | 0.375 | -0.0766 | -0.0872 | -0.0665 | -0.0494
GTTCTCT | 0.0349 | 0.123 | 0.34 | 0.778 | -0.0617 | 1.74 | 0.0935 | 0.131 | 0.0754 | 0.0895
GTCGCTG | -0.103 | -0.0792 | 0.0736 | 0.726 | -0.15 | 1.47 | -0.0521 | -0.0658 | -0.15 | -0.101
TTTAGAG | 0.0349 | 0.0509 | -0.336 | -0.552 | 0.024 | -1.13 | 0.183 | 0.0808 | 0.0884 | -0.0487
